Test results reported in publication PMC5836133.
This is one part of the list. At the low end of the ranking the order means little.

Tested on: T1, GST-NbGlk1(82-244)
T1 sequence: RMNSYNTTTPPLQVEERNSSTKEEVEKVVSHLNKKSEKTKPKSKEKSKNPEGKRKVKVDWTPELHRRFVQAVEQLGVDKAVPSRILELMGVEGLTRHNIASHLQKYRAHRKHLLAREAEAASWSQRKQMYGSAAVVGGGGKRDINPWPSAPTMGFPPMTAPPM
Experiment: protein-binding microarray;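 also: rank-based score ranging −0.5 to +0.5 with E above 0.45 taken as significant binding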
Conditions: NbGlk1 is a Golden2-like transcription factor of Nicotiana benthamiana; high values mean tight binding; most listed sequences are background and not binding sites; double strand, one strand shown

Sequence | binding signal
ATGGGAGC | -0.271 E-score
ACATCTGC | -0.0263 E-score
AGCTGGAC | -0.26 E-score
AAGACTAA | -0.00376 E-score
ACTCTCGC | -0.145 E-score
ATCCAATG | 0.213 E-score
AAACCGCA | -0.0413 E-score
ACGTCCGG | -0.0995 E-score
AAATATTC | 0.306 E-score
AGGTCTTA | -0.197 E-score
ATCTCGCC | 0.314 E-score
AAATAGGG | -0.122 E-score
AGCCAAAT | 0.0454 E-score
ACTATTCA | -0.0686 E-score
AAATACGT | 0.267 E-score
AAGTAATC | 0.337 E-score
AGCGTCAA | -0.00194 E-score
AGTCGTGC | -0.0277 E-score
AATTATGC | 0.0787 E-score
AGAGACCA | -0.14 E-score
CACTATCG | 0.134 E-score
ATGTCAAT | 0.0149 E-score
AGACACGC | -0.201 E-score
AAGAATCG | 0.374 E-score
CACTGCTA | -0.108 E-score

Sequence | binding signal
AATACACG | 0.0796 E-score
AGTCAGAT | 0.208 E-score
ACAGGTGG | -0.18 E-score
AATCATTG | 0.12 E-score
AAGCGTCC | -0.299 E-score
ACCCTCCT | -0.181 E-score
ATTAGCAA | 0.169 E-score
AAGAATCT | 0.449 E-score
AACATTTA | 0.113 E-score
CACTGAAG | -0.19 E-score
AAGACCGG | -0.204 E-score
ACATCAGT | -0.0817 E-score
AGCCGATA | 0.197 E-score
ATGATCGC | 0.232 E-score
ACCCGTAT | 0.063 E-score
ATGCATTC | 0.0555 E-score
AAGTTATT | 0.155 E-score
ATGTGCTC | -0.0577 E-score
ATTCCCTA | 0.367 E-score
AGAGTGCT | -0.124 E-score
ATTGGGTG | -0.0727 E-score
AACAACTG | -0.065 E-score
ACTGGGAC | -0.244 E-score
AAGGTTTA | -0.00355 E-score
AAGCCAGC | -0.205 E-score

Sequence | binding signal
ATTTCCTC | 0.309 E-score
ATTTGGAG | 0.0649 E-score
CAACATAA | 0.063 E-score
ACGACTCA | 0.0342 E-score
ACGTTCCT | -0.0714 E-score
AGTGTATA | 0.0911 E-score
ATACAGTC | -0.13 E-score
AAGACACG | -0.0512 E-score
AGGCTCTA | -0.188 E-score
AAACGCCG | -0.142 E-score
ATTAATCC | 0.147 E-score
ATCCCGAA | 0.173 E-score
AAGTTGGT | -0.0974 E-score
AATATAAC | 0.178 E-score
AGGTCACC | -0.38 E-score
ATGTTAAG | -0.033 E-score
ATTACAAC | 0.257 E-score
ATGCGAGC | -0.147 E-score
AGCTGCAG | -0.102 E-score
AGTGATTA | 0.245 E-score
AAGGCTAC | -0.224 E-score
ATTCGCTA | 0.301 E-score
CAAAATAG | 0.192 E-score
ATTCGTGA | 0.133 E-score
ATGCTTAA | 0.0953 E-score

Sequence | binding signal
ATGATATA | 0.108 E-score
ATGTTGGA | 0.101 E-score
CAAACAAC | -0.0175 E-score
AACCGGGC | -0.258 E-score
CACATGCA | -0.0308 E-score
ATGGTTGG | -0.133 E-score
ATTGCCCA | 0.162 E-score
AATTGACC | -0.121 E-score
CAAAGATA | 0.225 E-score
AACGCTGT | -0.112 E-score
AAGAAAAT | 0.34 E-score
CACATTGC | -0.0627 E-score
CAGAAGAG | -0.13 E-score
AGACCCAG | -0.276 E-score
AAATCCTG | 0.422 E-score
ACCGTGCG | -0.0682 E-score
AACGGTCT | -0.158 E-score
CAGACAAC | -0.0963 E-score
AGTTACAC | -0.0648 E-score
AGCGGACG | -0.151 E-score
CACAAAAA | 0.132 E-score
ACCGTGCC | -0.125 E-score
AAAGTTTG | 0.104 E-score
ACCCCAGC | -0.125 E-score
AATTAAAC | -0.0201 E-score

Sequence | binding signal
AGGCGCCA | -0.189 E-score
ACGGTAGT | -0.0515 E-score
ACGAAAAC | -0.112 E-score
ACGTATGG | -0.217 E-score
AGGAGTGG | -0.238 E-score
AAACCCCC | -0.373 E-score
AAGTATGC | 0.036 E-score
ATGGCCCC | -0.206 E-score
ATCAGAAG | 0.24 E-score
ATCCAGGG | 0.18 E-score
ATACCGAC | 0.0979 E-score
AGGAATGG | -0.0922 E-score
ACGATGGA | 0.0311 E-score
CACCCTTA | -0.153 E-score
CAAGTAGG | -0.0409 E-score
ACTATGTG | 0.0279 E-score
ACACTCTC | -0.105 E-score
AGCTCGAG | -0.000709 E-score
ATGGGTTC | -0.14 E-score
AATGAGAC | -0.183 E-score
ACGGCCTA | -0.0874 E-score
AGGGCGTG | -0.254 E-score
ACAGTAAC | -0.0361 E-score
ATCGGTAA | 0.201 E-score
ACGAGAGT | -0.148 E-score

Sequence | binding signal
ATCCCGGG | 0.0515 E-score
CACACCCA | -0.104 E-score
AGTGGGGC | -0.275 E-score
ATCTTACA | 0.258 E-score
AAGTTTGT | -0.138 E-score
ATTACGAC | 0.351 E-score
AGCAGCAT | -0.0713 E-score
AAAACACT | -0.0235 E-score
AGTATCAA | 0.144 E-score
ATAAAAAC | 0.119 E-score
ACGCGACC | -0.145 E-score
AAAAGTGC | -0.111 E-score
AACGCAGT | -0.176 E-score
ATCACAAC | 0.135 E-score
AATATTAG | 0.209 E-score
ATACATCC | 0.0086 E-score
AGTTTTGA | 0.0845 E-score
AGTCACCA | -0.186 E-score
AACCAACT | -0.058 E-score
AGACGTCC | -0.227 E-score
AGATATGG | 0.373 E-score
AAATTCCC | 0.294 E-score
ATTCAGGC | -0.0809 E-score
ACTAATAA | 0.0723 E-score
ACGCACCA | -0.299 E-score

Sequence | binding signal
ACGATAGG | -0.0796 E-score
ACGCTATG | -0.0034 E-score
ATGGAACA | -0.0391 E-score
ATTCATTA | 0.0671 E-score
CAACATGC | -0.0951 E-score
AAGATGCC | -0.106 E-score
AAAAGACC | -0.287 E-score
AGCGCGAT | 0.325 E-score
ACAAAGGG | -0.0988 E-score
ACACCGGA | 0.0311 E-score
AGGTGATC | 0.102 E-score
ACCGACCT | -0.263 E-score
ACTAAACT | -0.0324 E-score
AAAATTCG | 0.282 E-score
CACCCTCG | -0.072 E-score
ACTTGCAT | 0.085 E-score
AGAGTGGG | -0.296 E-score
AGTTCACC | -0.198 E-score
AATGCCAC | -0.146 E-score
AGGTCCAA | -0.283 E-score
AGACATAT | 0.0634 E-score
CAAATGAA | 0.0959 E-score
